# Measured values as given in the supplement of paper PMC8728848.
# The list shows a part of the results.
# Assays:
# Assay in all cases: glycan array binding signal (z-score within array); higher = stronger binding
# Settings in all cases: glycan notation: IUPAC condensed, linker removed
# [1] = biological target: Fuc(a1-2)[Gal(a1-3)]Gal(b1-4)GlcNAc(b1-2)Man(a1-3)[Fuc(a1-2)[Gal(a1-3)]Gal(b1-4)GlcNAc(b1-2)Man(a1-6)]Man(b1-4)GlcNAc(b1-4)[Fuc(a1-6)]GlcNAc
# Method in brief: (§1)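 Glycan array data were curated from 3228 arrays in the Consortium for Functional Glycomics database and kept only where the protein sequence was available. Glycan names were converted to IUPAC-condensed notation, and columns mapping to the same glycan were averaged. The binding signal is a within-array Z-score, averaged across arrays of the same protein sequence at different concentrations or buffers and across linkers. Negative Z-scores can be read as non-binding.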
# [2] = biological target: Fuc(a1-2)[Gal(a1-3)]Gal(b1-4)GlcNAc(b1-3)GalNAc
# Method in brief: as §1
# [3] = biological target: Fuc(a1-2)[Gal(a1-3)]Gal(b1-4)GlcNAc(b1-3)[Fuc(a1-2)[Gal(a1-3)]Gal(b1-4)GlcNAc(b1-6)]GalNAc
# Method in brief: as §1
# [4] = biological target: Fuc(a1-2)[Gal(a1-3)]Gal(b1-4)GlcNAc(b1-6)GalNAc
# Method in brief: as §1
# [5] = biological target: Fuc(a1-2)[Gal(a1-3)]Gal(b1-4)[Fuc(a1-3)]Glc
# Method in brief: as §1
# [6] = biological target: Fuc(a1-2)[Gal(a1-3)]Gal(b1-4)[Fuc(a1-3)]GlcNAc
# Method in brief: as §1
# [7] = biological target: Fuc(a1-2)[Gal(a1-3)]Gal(b1-4)[Fuc(a1-3)]GlcNAc(b1-3)GalNAc
# Method in brief: as §1
# [8] = biological target: Fuc(a1-2)[Gal(a1-4)]Gal(b1-4)GlcNAc
# Method in brief: as §1
# [9] = biological target: Fuc(a1-2)[GalNAc(a1-3)]Gal
# Method in brief: as §1
# [10] = biological target: Fuc(a1-2)[GalNAc(a1-3)]Gal(b1-3)GalNAc(a1-3)[Fuc(a1-2)]Gal(b1-4)GlcNAc
# Method in brief: as §1
# [11] = biological target: Fuc(a1-2)[GalNAc(a1-3)]Gal(b1-3)GalNAc(b1-3)Gal(a1-4)Gal(b1-4)Glc
# Method in brief: as §1
# [12] = biological target: Fuc(a1-2)[GalNAc(a1-3)]Gal(b1-3)GlcNAc
# Method in brief: as §1
# [13] = biological target: Fuc(a1-2)[GalNAc(a1-3)]Gal(b1-3)GlcNAc(b1-2)Man(a1-3)[Fuc(a1-2)[GalNAc(a1-3)]Gal(b1-3)GlcNAc(b1-2)Man(a1-6)]Man(b1-4)GlcNAc(b1-4)GlcNAc
# Method in brief: as §1
# [14] = biological target: Fuc(a1-2)[GalNAc(a1-3)]Gal(b1-3)GlcNAc(b1-2)Man(a1-3)[Fuc(a1-2)[GalNAc(a1-3)]Gal(b1-3)GlcNAc(b1-2)Man(a1-6)]Man(b1-4)GlcNAc(b1-4)[Fuc(a1-6)]GlcNAc
# Method in brief: as §1
# [15] = biological target: Fuc(a1-2)[GalNAc(a1-3)]Gal(b1-3)GlcNAc(b1-3)GalNAc
# Method in brief: as §1
# [16] = biological target: Fuc(a1-2)[GalNAc(a1-3)]Gal(b1-3)GlcNAc(b1-6)GalNAc
# Method in brief: as §1
# [17] = biological target: Fuc(a1-2)[GalNAc(a1-3)]Gal(b1-4)Glc
# Method in brief: as §1
# [18] = biological target: Fuc(a1-2)[GalNAc(a1-3)]Gal(b1-4)GlcNAc
# Method in brief: as §1
# [19] = biological target: Fuc(a1-2)[GalNAc(a1-3)]Gal(b1-4)GlcNAc(b1-2)Man
# Method in brief: as §1
# [20] = biological target: Fuc(a1-2)[GalNAc(a1-3)]Gal(b1-4)GlcNAc(b1-2)Man(a1-3)[Fuc(a1-2)[GalNAc(a1-3)]Gal(b1-4)GlcNAc(b1-2)Man(a1-6)]Man(b1-4)GlcNAc(b1-4)GlcNAc
# Method in brief: as §1
# [21] = biological target: Fuc(a1-2)[GalNAc(a1-3)]Gal(b1-4)GlcNAc(b1-2)Man(a1-3)[Fuc(a1-2)[GalNAc(a1-3)]Gal(b1-4)GlcNAc(b1-2)Man(a1-6)]Man(b1-4)GlcNAc(b1-4)[Fuc(a1-6)]GlcNAc
# Method in brief: as §1
# [22] = biological target: Fuc(a1-2)[GalNAc(a1-3)]Gal(b1-4)GlcNAc(b1-3)Gal(b1-4)GlcNAc
# Method in brief: as §1
# [23] = biological target: Fuc(a1-2)[GalNAc(a1-3)]Gal(b1-4)GlcNAc(b1-3)Gal(b1-4)GlcNAc(b1-3)Gal(b1-4)GlcNAc
# Method in brief: as §1
# [24] = biological target: Fuc(a1-2)[GalNAc(a1-3)]Gal(b1-4)GlcNAc(b1-3)GalNAc
# Method in brief: as §1
# [25] = biological target: Fuc(a1-2)[GalNAc(a1-3)]Gal(b1-4)GlcNAc(b1-3)[Fuc(a1-2)[GalNAc(a1-3)]Gal(b1-4)GlcNAc(b1-6)]GalNAc
# Method in brief: as §1
# [26] = biological target: Fuc(a1-2)[GalNAc(a1-3)]Gal(b1-4)GlcNAc(b1-6)GalNAc
# Method in brief: as §1
# [27] = biological target: Fuc(a1-2)[GalNAc(a1-3)]Gal(b1-4)[Fuc(a1-3)]GlcNAc
# Method in brief: as §1
# [28] = biological target: Fuc(a1-2)[GalNAc(a1-3)]Gal(b1-4)[Fuc(a1-3)]GlcNAc(b1-3)GalNAc
# Method in brief: as §1
# [29] = biological target: Fuc(a1-2)[GalNAc(a1-4)]Gal(b1-4)GlcNAc
# Method in brief: as §1
# [30] = biological target: Fuc(a1-2)[GalNAc(b1-3)]Gal
# Method in brief: as §1
# Fuc(a1-3)GlcNAc = biological target: Fuc(a1-3)GlcNAc
# Method in brief: as §1
# [31] = biological target: Fuc(a1-3)[Gal(b1-4)]Glc6S
# Method in brief: as §1
# [32] = biological target: Fuc(a1-3)[Gal(b1-4)]GlcNAc
# Method in brief: as §1
# [33] = biological target: Fuc(a1-3)[Gal(b1-4)]GlcNAc(b1-2)Man
# Method in brief: as §1
# [34] = biological target: Fuc(a1-3)[Gal(b1-4)]GlcNAc(b1-2)Man(a1-3)[Fuc(a1-3)[Gal(b1-4)]GlcNAc(b1-2)Man(a1-6)]Man(b1-4)GlcNAc(b1-4)GlcNAc
# Method in brief: as §1
# [35] = biological target: Fuc(a1-3)[Gal(b1-4)]GlcNAc(b1-2)Man(a1-3)[Fuc(a1-3)[Gal(b1-4)]GlcNAc(b1-2)Man(a1-6)]Man(b1-4)GlcNAc(b1-4)[Fuc(a1-6)]GlcNAc
# Method in brief: as §1
# [36] = biological target: Fuc(a1-3)[Gal(b1-4)]GlcNAc(b1-3)Gal(b1-3)[Fuc(a1-4)]GlcNAc
# Method in brief: as §1
# [37] = biological target: Fuc(a1-3)[Gal(b1-4)]GlcNAc(b1-3)Gal(b1-4)[Fuc(a1-3)]GlcNAc
# Method in brief: as §1
# [38] = biological target: Fuc(a1-3)[Gal(b1-4)]GlcNAc(b1-3)Gal(b1-4)[Fuc(a1-3)]GlcNAc(b1-3)Gal(b1-4)[Fuc(a1-3)]GlcNAc
# Method in brief: as §1
# [39] = biological target: Fuc(a1-3)[Gal(b1-4)]GlcNAc(b1-3)GalNAc
# Method in brief: as §1
# [40] = biological target: Fuc(a1-3)[Gal(b1-4)]GlcNAc(b1-6)GalNAc
# Method in brief: as §1
# [41] = biological target: Fuc(a1-3)[Gal(b1-4)]GlcNAc(b1-6)[Gal(b1-3)GlcNAc(b1-3)]Gal(b1-4)Glc
# Method in brief: as §1
# [42] = biological target: Fuc(a1-3)[Gal(b1-4)]GlcNAc6S
# Method in brief: as §1
# [43] = biological target: Fuc(a1-3)[Gal3S(b1-4)]Glc
# Method in brief: as §1
# [44] = biological target: Fuc(a1-3)[Gal3S(b1-4)]GlcNAc
# Method in brief: as §1
binder,measurement,setting,value
Mermaid3 (Stilbonema majum) (protein) MGSSHHHHHHSSGLVPRGSHMAASGWLRSPQGTVVKLYRRSLSWSKADEFCKDVDGRLVVDRTADMHLFLIKNVLKEKKSRVWVGLRRTASHSRTWIWSDGTRQNEGDLDANLWLRDEPNDAAGEEECALFMYSPWEKAWGLNDYLCRGGCRNYQFICEKWIR,glycan array binding signal (z-score),[1],-0.404
same,glycan array binding signal (z-score),[2],-0.662
same,glycan array binding signal (z-score),[3],0.468
same,glycan array binding signal (z-score),[4],-0.383
same,glycan array binding signal (z-score),[5],-0.619
same,glycan array binding signal (z-score),[6],-0.034
same,glycan array binding signal (z-score),[7],-0.592
same,glycan array binding signal (z-score),[8],3.05
same,glycan array binding signal (z-score),[9],-0.436
same,glycan array binding signal (z-score),[10],-0.848
same,glycan array binding signal (z-score),[11],-0.302
same,glycan array binding signal (z-score),[12],0.176
same,glycan array binding signal (z-score),[13],-0.363
same,glycan array binding signal (z-score),[14],-0.494
same,glycan array binding signal (z-score),[15],0.026
same,glycan array binding signal (z-score),[16],-0.726
same,glycan array binding signal (z-score),[17],-0.766
same,glycan array binding signal (z-score),[18],-0.335
same,glycan array binding signal (z-score),[19],-0.726
same,glycan array binding signal (z-score),[20],-0.51
same,glycan array binding signal (z-score),[21],0.166
same,glycan array binding signal (z-score),[22],-0.69
same,glycan array binding signal (z-score),[23],-0.255
same,glycan array binding signal (z-score),[24],-0.58
same,glycan array binding signal (z-score),[25],-0.54
same,glycan array binding signal (z-score),[26],2.24
same,glycan array binding signal (z-score),[27],0.773
same,glycan array binding signal (z-score),[28],-0.499
same,glycan array binding signal (z-score),[29],0.132
same,glycan array binding signal (z-score),[30],-0.814
same,glycan array binding signal (z-score),Fuc(a1-3)GlcNAc,-0.325
same,glycan array binding signal (z-score),[31],1.71
same,glycan array binding signal (z-score),[32],0.325
same,glycan array binding signal (z-score),[33],-0.796
same,glycan array binding signal (z-score),[34],-0.492
same,glycan array binding signal (z-score),[35],-0.113
same,glycan array binding signal (z-score),[36],-0.308
same,glycan array binding signal (z-score),[37],0.021
same,glycan array binding signal (z-score),[38],-0.463
same,glycan array binding signal (z-score),[39],0.062
same,glycan array binding signal (z-score),[40],-0.74
same,glycan array binding signal (z-score),[41],0.193
same,glycan array binding signal (z-score),[42],3.67
same,glycan array binding signal (z-score),[43],-0.589
same,glycan array binding signal (z-score),[44],-0.172
